Source: the supplement of paper PMC10724272

Experiments:
Assay in all cases: CLSI broth microdilution.
posaconazole = compound: CC[C@@H]([C@H](C)O)n1ncn(-c2ccc(N3CCN(c4ccc(OC[C@@H]5CO[C@@](Cn6cncn6)(c6ccc(F)cc6F)C5)cc4)CC3)cc2)c1=O [posaconazole]
itraconazole = compound: CCC(C)n1ncn(-c2ccc(N3CCN(c4ccc(OCC5COC(Cn6cncn6)(c6ccc(Cl)cc6Cl)O5)cc4)CC3)cc2)c1=O [itraconazole]
fluconazole = compound: OC(Cn1cncn1)(Cn1cncn1)c1ccc(F)cc1F [fluconazole]
amphotericin B = compound: C[C@@H]1[C@H](O)[C@@H](C)/C=C/C=C/C=C/C=C/C=C/C=C/C=C/[C@H](O[C@@H]2O[C@H](C)[C@@H](O)[C@H](N)[C@@H]2O)C[C@@H]2O[C@](O)(C[C@@H](O)C[C@@H](O)[C@H](O)CC[C@@H](O)C[C@@H](O)CC(=O)O[C@H]1C)C[C@H](O)[C@H]2C(=O)O [amphotericin B]
voriconazole = compound: C[C@@H](c1ncncc1F)[C@](O)(Cn1cncn1)c1ccc(F)cc1F [voriconazole]
flucytosine = compound: Nc1[nH]c(=O)ncc1F [flucytosine]
anidulafungin = compound: CCCCCOc1ccc(-c2ccc(-c3ccc(C(=O)N[C@H]4C[C@@H](O)[C@@H](O)NC(=O)[C@@H]5[C@@H](O)[C@@H](C)CN5C(=O)[C@H]([C@@H](C)O)NC(=O)[C@H]([C@H](O)[C@@H](O)c5ccc(O)cc5)NC(=O)[C@@H]5C[C@@H](O)CN5C(=O)[C@H]([C@@H](C)O)NC4=O)cc3)cc2)cc1 [anidulafungin]
caspofungin = compound: CC[C@H](C)C[C@H](C)CCCCCCCCC(=O)N[C@H]1C[C@@H](O)[C@@H](NCCN)NC(=O)[C@@H]2[C@@H](O)CCN2C(=O)[C@H]([C@H](O)CCN)NC(=O)[C@H]([C@H](O)[C@@H](O)c2ccc(O)cc2)NC(=O)[C@@H]2C[C@@H](O)CN2C(=O)[C@H]([C@@H](C)O)NC1=O [caspofungin]
micafungin = compound: CCCCCOc1ccc(-c2cc(-c3ccc(C(=O)N[C@H]4C[C@@H](O)[C@@H](O)NC(=O)[C@@H]5[C@@H](O)[C@@H](C)CN5C(=O)[C@H]([C@H](O)CC(N)=O)NC(=O)[C@H]([C@H](O)[C@@H](O)c5ccc(O)c(OS(=O)(=O)O)c5)NC(=O)[C@@H]5C[C@@H](O)CN5C(=O)[C@H]([C@@H](C)O)NC4=O)cc3)no2)cc1 [micafungin]

Test System	MIC (posaconazole)	MIC (itraconazole)	MIC (fluconazole)	MIC (amphotericin B)	MIC (voriconazole)	MIC (flucytosine)	MIC (anidulafungin)	MIC (caspofungin)	MIC (micafungin)
Candida tropicalis isolate 72 (ERG11 copies: 2, Erg11p: no key change)	0.5 mg/L [R]	0.5 mg/L [S]	4 µg/mL	1 mg/L [S]	0.5 µg/mL	≤ 0.06 mg/L [S]	≤ 0.015 mg/L [S]	0.03 mg/L [S]	0.03 mg/L [S]
Candida tropicalis isolate 42 (ERG11 copies: 8, Erg11p: Y132F, S154F (heterozygous))	2 mg/L [R]	1 mg/L [R]	512 mg/L [R]	0.5 mg/L [S]	≥ 8 mg/L [R]	≤ 0.06 mg/L [S]	0.12 mg/L [S]	0.06 mg/L [S]	0.06 mg/L [S]
Candida tropicalis isolate 373 (ERG11 copies: 2, Erg11p: no key change)	0.12 mg/L [S]	0.12 mg/L [S]	1 mg/L [S]	0.5 mg/L [S]	0.06 mg/L [S]	≤ 0.06 mg/L [S]	0.06 mg/L [S]	0.03 mg/L [S]	0.03 mg/L [S]
Candida tropicalis isolate 338 (ERG11 copies: 2, Erg11p: no key change)	0.25 mg/L [S]	0.25 mg/L [S]	1 mg/L [S]	1 mg/L [S]	0.06 mg/L [S]	≤ 0.06 mg/L [S]	0.12 mg/L [S]	0.03 mg/L [S]	0.03 mg/L [S]
Candida tropicalis isolate 6 (ERG11 copies: 2, Erg11p: no key change)	0.12 mg/L [S]	0.12 mg/L [S]	1 mg/L [S]	1 mg/L [S]	0.06 mg/L [S]	≤ 0.06 mg/L [S]	0.06 mg/L [S]	0.06 mg/L [S]	0.03 mg/L [S]
Candida tropicalis isolate 317 (ERG11 copies: 2, Erg11p: no key change)	0.12 mg/L [S]	0.12 mg/L [S]	2 mg/L [S]	1 mg/L [S]	0.12 mg/L [S]	≤ 0.06 mg/L [S]	≤ 0.015 mg/L [S]	0.015 mg/L [S]	0.03 mg/L [S]
Candida tropicalis isolate 362 (ERG11 copies: 2, Erg11p: no key change)	0.5 mg/L [R]	0.5 mg/L [S]	2 mg/L [S]	1 mg/L [S]	0.25 µg/mL	≤ 0.06 mg/L [S]	0.12 mg/L [S]	0.03 mg/L [S]	0.03 mg/L [S]
Candida tropicalis isolate 89 (ERG11 copies: 2, Erg11p: no key change)	0.25 mg/L [S]	0.25 mg/L [S]	2 mg/L [S]	0.5 mg/L [S]	0.25 µg/mL	≤ 0.06 mg/L [S]	0.12 mg/L [S]	0.03 mg/L [S]	0.06 mg/L [S]
Candida tropicalis isolate 137 (ERG11 copies: 2, Erg11p: no key change)	0.25 mg/L [S]	0.25 mg/L [S]	0.5 mg/L [S]	0.5 mg/L [S]	0.06 mg/L [S]	≤ 0.06 mg/L [S]	0.12 mg/L [S]	0.12 mg/L [S]	0.015 mg/L [S]
Candida tropicalis isolate 336 (ERG11 copies: 2, Erg11p: no key change)	0.12 mg/L [S]	0.12 mg/L [S]	2 mg/L [S]	1 mg/L [S]	0.06 mg/L [S]	≤ 0.06 mg/L [S]	≤ 0.015 mg/L [S]	0.03 mg/L [S]	0.03 mg/L [S]
Candida tropicalis isolate 420 (ERG11 copies: 2, Erg11p: G464S (heterozygous))	1 mg/L [R]	≥ 16 mg/L [R]	16 mg/L [R]	1 mg/L [S]	1 mg/L [R]	≤ 0.06 mg/L [S]	0.12 mg/L [S]	0.06 mg/L [S]	0.03 mg/L [S]
Candida tropicalis isolate 145 (ERG11 copies: 7, Erg11p: Y132F, S154F (heterozygous))	2 mg/L [R]	1 mg/L [R]	512 mg/L [R]	2 mg/L [S]	≥ 8 mg/L [R]	≤ 0.06 mg/L [S]	0.06 mg/L [S]	0.03 mg/L [S]	0.03 mg/L [S]
Candida tropicalis isolate 39 (ERG11 copies: 8, Erg11p: Y132F, S154F (heterozygous))	0.5 mg/L [R]	0.5 mg/L [S]	512 mg/L [R]	1 mg/L [S]	≥ 8 mg/L [R]	≤ 0.06 mg/L [S]	0.03 mg/L [S]	0.03 mg/L [S]	0.03 mg/L [S]
Candida tropicalis isolate 412 (ERG11 copies: 2, Erg11p: no key change)	0.03 mg/L [S]	0.06 mg/L [S]	0.5 mg/L [S]	0.5 mg/L [S]	0.015 mg/L [S]	0.12 mg/L [S]	0.06 mg/L [S]	0.03 mg/L [S]	0.015 mg/L [S]
Candida tropicalis isolate 296 (ERG11 copies: 2, Erg11p: no key change)	0.25 mg/L [S]	0.25 mg/L [S]	2 mg/L [S]	0.5 mg/L [S]	0.12 mg/L [S]	0.12 mg/L [S]	0.12 mg/L [S]	0.03 mg/L [S]	0.03 mg/L [S]
Candida tropicalis isolate 313 (ERG11 copies: 2, Erg11p: no key change)	0.25 mg/L [S]	0.25 mg/L [S]	2 mg/L [S]	1 mg/L [S]	0.12 mg/L [S]	≤ 0.06 mg/L [S]	0.03 mg/L [S]	0.03 mg/L [S]	0.03 mg/L [S]
Candida tropicalis isolate 233 (ERG11 copies: 10, Erg11p: Y132F, S154F (heterozygous))	1 mg/L [R]	1 mg/L [R]	512 mg/L [R]	1 mg/L [S]	≥ 8 mg/L [R]	≤ 0.06 mg/L [S]	0.25 mg/L [S]	0.25 mg/L [S]	0.06 mg/L [S]
Candida tropicalis isolate 398 (ERG11 copies: 2, Erg11p: Y132F, S154F (heterozygous))	0.12 mg/L [S]	0.25 mg/L [S]	16 mg/L [R]	1 mg/L [S]	1 mg/L [R]	≤ 0.06 mg/L [S]	0.03 mg/L [S]	0.03 mg/L [S]	0.03 mg/L [S]

MIC of invasive clinical C. tropicalis isolates, CLSI broth microdilution (fluconazole 0.12-256 mg/L, up to 1,024 for the azole-resistant cluster and its neighbour group; other ranges not stated); higher = less susceptible. Call: susceptible or wild type [S] / resistant or non-wild type [R] by CLSI breakpoints or cut-offs; intermediate and dose-dependent carry no call. '<=' and '>=' at the end values are inferred; the source marks only some of them. Isolates are numbered anew.
